115 sequences from the BET-seq Pho4 binding data (Le et al. 2018) can be followed below.

The other results are listed elsewhere or left out. Values were computed here from the reads of four pooled replicates and scatter widely.

The experiment addresses T1, Pho4 (S. cerevisiae) (UniProt P07270).
T1 sequence: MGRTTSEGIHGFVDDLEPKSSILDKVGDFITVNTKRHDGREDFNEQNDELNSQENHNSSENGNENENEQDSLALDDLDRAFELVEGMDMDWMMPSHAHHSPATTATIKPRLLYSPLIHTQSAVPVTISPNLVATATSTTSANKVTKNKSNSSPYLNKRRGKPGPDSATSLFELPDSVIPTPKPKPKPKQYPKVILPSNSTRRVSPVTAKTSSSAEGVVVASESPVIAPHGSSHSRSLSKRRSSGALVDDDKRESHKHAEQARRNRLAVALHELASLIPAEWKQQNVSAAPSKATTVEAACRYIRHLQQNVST
The experiment can be described thus: relative binding free energy (BET-seq); higher = weaker binding. The following applies: reference: library average.
As to GCTATCACGTGGGGTG, the “relative binding free energy” value is -0.03 kcal/mol.
In the case of TTGTTCACGTGGTTTC it was 0.4 kcal/mol; in that of GGATTCACGTGTAAGG, 0.23 kcal/mol; in that of GGTATCACGTGGTTGC, 0.23 kcal/mol.
As to TGGTACACGTGTGCCG, the “relative binding free energy” value stood at 0.07 kcal/mol.
With CATATCACGTGAGGGG, the “relative binding free energy” value is 0.29 kcal/mol.
Regarding TACGGCACGTGGGTGC, the “relative binding free energy” value was -0.24 kcal/mol.
For the sequence TCTTGCACGTGATTGG, the “relative binding free energy” value is 0.1 kcal/mol.
In the case of GTGGTCACGTGCGAAT, the “relative binding free energy” value is 0.01 kcal/mol.
Then TGATTCACGTGTAGTA, with 0.15 kcal/mol; and CTGGTCACGTGGTACT, with 0.05 kcal/mol; and CTTAGCACGTGAGTAT, with 0.18 kcal/mol.
As for AGAGGCACGTGGATTT, the “relative binding free energy” value is -0.14 kcal/mol.
Turning to ATTTTCACGTGCAATT, the “relative binding free energy” value is 0.27 kcal/mol.
As for CGAGCCACGTGGAGGG, the “relative binding free energy” value was determined as 0 kcal/mol.
For the sequence ATATTCACGTGTTGAA, the “relative binding free energy” value was 0.12 kcal/mol.
Turning to GTTGGCACGTGGCGGG, the “relative binding free energy” value is -0.09 kcal/mol.
For CGGCTCACGTGCGTTG, the “relative binding free energy” value was 0.3 kcal/mol.
In the case of ATTCTCACGTGTCGGT it was 0.28 kcal/mol.
Turning to TGTGGCACGTGGTAAT, the “relative binding free energy” value was -0.05 kcal/mol.
Regarding CTGTACACGTGTGAGG, the “relative binding free energy” value turned out to be 0.13 kcal/mol.
Consider CTGGACACGTGTGTCG, for which the “relative binding free energy” value amounted to 0.02 kcal/mol.
Take TTCTCCACGTGTTTGT: the “relative binding free energy” value is -0.15 kcal/mol.
As for GCGTGCACGTGTTAGG, the “relative binding free energy” value is -0.07 kcal/mol.
Turning to TAGATCACGTGGTTGA, the “relative binding free energy” value came out at 0.07 kcal/mol.
For TTTGGCACGTGTCTAT, the “relative binding free energy” value was -0.1 kcal/mol.
Consider TAGATCACGTGGCGTT, for which the “relative binding free energy” value was determined as 0.1 kcal/mol.
Regarding GTGAGCACGTGAAGTA, the “relative binding free energy” value is 0.11 kcal/mol.
In the case of AATGCCACGTGGGTTG it was -0.3 kcal/mol; in that of TGTCACACGTGGTGGA, 0.01 kcal/mol.
Regarding TTTAGCACGTGAGAGA, the “relative binding free energy” value was determined as 0.27 kcal/mol.
On to TTTTGCACGTGCTCTG, for which the “relative binding free energy” value was -0.12 kcal/mol.
In the case of GATGTCACGTGAAGTT, the “relative binding free energy” value came out at 0.35 kcal/mol.
In the case of GTTGTCACGTGGCAAA it was 0.17 kcal/mol; in that of GAAGGCACGTGTAAGG, 0.02 kcal/mol; in that of TGAGACACGTGTGAAG, 0.11 kcal/mol.
Turning to CAGGGCACGTGGTCGG, the “relative binding free energy” value was -0.2 kcal/mol.
On to GCAGGCACGTGGGGTC, for which the “relative binding free energy” value was -0.18 kcal/mol.
For the sequence TTCAGCACGTGAGTGT, the “relative binding free energy” value was determined as 0.21 kcal/mol.
As for AAGATCACGTGTGTGC, the “relative binding free energy” value was found to be 0.18 kcal/mol.
Turning to CTAGTCACGTGGTATA, the “relative binding free energy” value is -0.02 kcal/mol.
For ATGGACACGTGAGATT, the “relative binding free energy” value amounted to 0.31 kcal/mol.
In the case of TTCAGCACGTGGGGCT it was -0.23 kcal/mol; in that of AATGGCACGTGGGTTT, -0.13 kcal/mol.
As for AATTTCACGTGGAAGG, the “relative binding free energy” value stood at 0.16 kcal/mol.
In the case of TTGCTCACGTGGGTGA, the “relative binding free energy” value came out at 0.15 kcal/mol.
For the sequence TGCACCACGTGGGGTT, the “relative binding free energy” value is -0.26 kcal/mol.
As for CAAGGCACGTGGGCTG, the “relative binding free energy” value was -0.22 kcal/mol.
With GGTTACACGTGGATAT, the “relative binding free energy” value came to 0.11 kcal/mol.
As to TGTGTCACGTGGGTAA, the “relative binding free energy” value is -0.03 kcal/mol.
On to TTAGACACGTGCTGTA, for which the “relative binding free energy” value is -0.07 kcal/mol.
As for TGCGTCACGTGTAGTT, the “relative binding free energy” value is 0.11 kcal/mol.
In the case of GGAGTCACGTGGCGTA, the “relative binding free energy” value was 0.1 kcal/mol.
In the case of AGGGTCACGTGGTCGT it was -0.13 kcal/mol; in that of GTGAGCACGTGTGGGA, 0 kcal/mol.
Then ATGTACACGTGTGCGA, with 0.1 kcal/mol.
Then CCGGTCACGTGGGCGG, with -0.16 kcal/mol; and ACGGACACGTGGGGGA, with -0.18 kcal/mol.
On to TTTACCACGTGTTTTA, for which the “relative binding free energy” value was found to be 0.01 kcal/mol.
In the case of GGTATCACGTGATTAA it was 0.31 kcal/mol; in that of GGTCGCACGTGTGAGA, 0.22 kcal/mol.
For the sequence GGCGTCACGTGGTAAA, the “relative binding free energy” value was 0.27 kcal/mol.
On to GTCGTCACGTGGGGCT, for which the “relative binding free energy” value was 0.1 kcal/mol.
Regarding ATTGGCACGTGACTCT, the “relative binding free energy” value was determined as 0.19 kcal/mol.
As for CAAGGCACGTGTGTGT, the “relative binding free energy” value was -0.08 kcal/mol.
Turning to GAATTCACGTGCTGTT, the “relative binding free energy” value stood at 0.27 kcal/mol.
Take GGATTCACGTGGTTAT: the “relative binding free energy” value came to 0.37 kcal/mol.
In the case of GTGTGCACGTGAGAAG it was 0.21 kcal/mol; in that of TAATACACGTGAGTGG, 0.27 kcal/mol; in that of TATCACACGTGGGGTG, -0.03 kcal/mol.
With ATTTTCACGTGGCTGT, the “relative binding free energy” value amounted to 0.15 kcal/mol.
Regarding TTGTGCACGTGGTCAG, the “relative binding free energy” value was -0.16 kcal/mol.
As to AAAAGCACGTGCTGTG, the “relative binding free energy” value was -0.07 kcal/mol.
As for TCTGGCACGTGGGAAT, the “relative binding free energy” value is -0.16 kcal/mol.
As to TGTGGCACGTGCAAAG, the “relative binding free energy” value is -0.04 kcal/mol.
Take TGTTACACGTGGGTAG: the “relative binding free energy” value worked out at 0 kcal/mol.
Regarding ATTGGCACGTGAAACG, the “relative binding free energy” value was 0.19 kcal/mol.
On to GGGGTCACGTGAATTT, for which the “relative binding free energy” value is 0.34 kcal/mol.
Turning to AAGTACACGTGCTTTT, the “relative binding free energy” value came to 0.1 kcal/mol.
In the case of TTTCTCACGTGCTTAT it was 0.15 kcal/mol; in that of GCGGGCACGTGTGGCA, -0.05 kcal/mol.
In the case of GAAGACACGTGGGTGA, the “relative binding free energy” value was -0.08 kcal/mol.
On to GAGGGCACGTGTGAGA, for which the “relative binding free energy” value was 0.11 kcal/mol.
Then AGGTCCACGTGTTGTA, with -0.04 kcal/mol.
TAGGTCACGTGTTGAA: the “relative binding free energy” value amounted to 0.08 kcal/mol.
As for AAGGTCACGTGGCGTA, the “relative binding free energy” value was -0.03 kcal/mol.
As to TTCGGCACGTGGAATT, the “relative binding free energy” value is 0.14 kcal/mol.
With AAAGGCACGTGTTTAA, the “relative binding free energy” value is -0.11 kcal/mol.
Then AAAATCACGTGTTATG, with 0.09 kcal/mol; and GGTAGCACGTGGTTTT, with -0.1 kcal/mol.
For the sequence TCTAGCACGTGTTTGG, the “relative binding free energy” value was -0.01 kcal/mol.
Consider TGGCGCACGTGCGGGC, for which the “relative binding free energy” value was -0.02 kcal/mol.
As to TTACTCACGTGGGTTT, the “relative binding free energy” value was 0.08 kcal/mol.
In the case of GGTTCCACGTGTAAGT it was 0.19 kcal/mol.
Consider CGTAGCACGTGCGGGA, for which the “relative binding free energy” value was -0.06 kcal/mol.
Turning to GTAGGCACGTGATATT, the “relative binding free energy” value was determined as 0 kcal/mol.
Regarding TGTGGCACGTGGTTGC, the “relative binding free energy” value was -0.13 kcal/mol.
TGGGTCACGTGTCAGC: the “relative binding free energy” value came out at 0.18 kcal/mol.
In the case of TTTGTCACGTGACAAG, the “relative binding free energy” value is 0.09 kcal/mol.
CTTACCACGTGGTGGG: the “relative binding free energy” value was -0.12 kcal/mol.
As to GGGGCCACGTGAAGCG, the “relative binding free energy” value was determined as 0.22 kcal/mol.
Then TCAATCACGTGAGTGG, with 0.4 kcal/mol; and TTATCCACGTGGGGAG, with 0.01 kcal/mol.
With GTTGGCACGTGATGTG, the “relative binding free energy” value was found to be 0.11 kcal/mol.
For the sequence ATTGACACGTGAGTTT, the “relative binding free energy” value stood at 0.21 kcal/mol.
In the case of TAGGCCACGTGTTAGG, the “relative binding free energy” value is -0.06 kcal/mol.
Take CGTGTCACGTGCGTGT: the “relative binding free energy” value is -0.03 kcal/mol.
As to GGGTTCACGTGCACAG, the “relative binding free energy” value amounted to 0.24 kcal/mol.
In the case of GTGGTCACGTGAGGCC it was 0.24 kcal/mol; in that of AGGGTCACGTGTTCAA, 0.09 kcal/mol; in that of TAGGGCACGTGGGCTG, -0.2 kcal/mol.
In the case of ATTTTCACGTGAAGCG it was 0.48 kcal/mol; in that of GGTCGCACGTGCTTTG, -0.12 kcal/mol; in that of TGACACACGTGATGGG, 0.12 kcal/mol.
Then AATGTCACGTGTTGAT, with 0.18 kcal/mol.
